The test system of the data set is ATP. Kind of data set: switch fluorescence ratio, 500 uM ATP over buffer (Cy3 cluster intensity, sum of 5 cycles each) (fold (ratio)); higher = stronger signal-on switching upon ATP binding; sequences stand for … in TCGTCGGCAGCGTCAGATGTGTATAAGAGACAGTTTTTTTTTTTTTTTTTTTTTTTTT…TC. Conditions: aptamer strand: ATP DNA aptamer (quencher-CACCTGGGGGAGTATTGCGGAGGAAGG + anchor), 100 nM annealed; ATP concentration: 500 uM; one replicate. Summed up: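 Between each of five buffer/ATP cycles, the flow-cell was stripped with NaOH and re-annealed. Each cycle imaged Cy3-labelled switching-strand clusters, annealed to 100 nM quencher-labelled ATP aptamer on a modified Illumina MiSeq flow-cell, first in selection buffer and then after 15 min with 500 uM ATP at 22 °C. The fluorescence ratio is summed target-cycle over summed buffer-cycle Cy3 intensity per cluster, averaged per switch-domain sequence, with clusters outside 100-1000 RFU excluded.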

Sequences with one replicate were seen in a single cluster, so their values are uncertain.
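Further: ATP exposure 15 min at 22 °C before imaging.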

GCTTGCATCG: the switch fluorescence ratio was found to be 0.982. For the sequence GGCTCTATAA, the switch fluorescence ratio stood at 0.982.

On to GGCAAGTAGG, for which the switch fluorescence ratio amounted to 1.

Turning to ACCCAGGCGT, the switch fluorescence ratio is 3.96. The same measure for GCAACTGATG: 0.98; for GGTTTCCGCG: 1.15; for CTGGAGTTAC: 2.8. Turning to AGTTAATCAT, the switch fluorescence ratio is 1.05. AGGTGAATTT: the switch fluorescence ratio was determined as 1.05. The same measure for CGCAGACAG: 1.04; for TGCACTACGC: 1.11; for TGCACGGCAA: 1.15. The same measure for AACCGCCAAG: 1.1. ATAAGCACCC: the switch fluorescence ratio was 1.5. The same measure for GTTGAAAATG: 1; for CCGACTCATG: 1.58. The same measure for GAGTCAGGCT: 0.949; for AGGCGCGGCT: 1.09.

Consider GTACGTTTTT, for which the switch fluorescence ratio is 0.958. The same measure for CATGCGGGGA: 0.982; for CGCCATGGCG: 1. CACACCCACT: the switch fluorescence ratio was 1.2.
